From a collection of fitness landscapes (doi:10.1016/j.celrep.2020.107928)
Whole data set: some 81,000 sequences, median “one-hybrid fitness for binding NBS DNA” near -0.1, cut for the highest 2% near 0.36. Some of the results follow.

B1: Caulobacter ParB omega fusion; a variant is named by its letters at X, in order, B8GW30 (parent)
chain: MESVVVGEPGMSEGRRGLGRGLSALLGEVDAAPAQAPGEQLGGSREAPIEILQRNPDQPRRTFREEDLEDLSNSIREKGVLQPILVRPSPDTAGEYQIVAGERAWRAAQRAGLKTVPIMVRELDDLAVLEIGIIENVQRADLNVLEEALSYKVLMEKFERTQENIAQTIGKSXSHVANXMRLLXLPDEVQSYLVSGELTAXHARAIAAAADPVALAKQIIEGGLSVRETEALARKAPNLSAGKSKGGRPPRVKDTDTQALESDLSSVLGLDVSIDHRGSTGTLTITYATLEQLDDLCNRLTRGI

Variants of: B1
Experiment: one-hybrid fitness for binding NBS DNA (the Noc-binding site; scaled: cognate 1, non-cognate 0); higher = stronger binding
Conditions: with NBS DNA site
Outline: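 Pre- and post-selection plasmids were Illumina-sequenced, three replicate libraries were pooled, and any variant with under 10 reads was removed. The libraries were Caulobacter ParB with four specificity codons randomised, selected in E. coli USO through a HIS3 reporter whose site is 19 bp from the promoter. Cells grew 48 hours at 37°C on M9 without histidine, with 0.1 mM IPTG and 5 mM 3-AT. Fitness is the log change in variant-to-wild-type read ratio, rescaled against cognate and non-cognate.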

Row | Variant | one-hybrid fitness for binding NBS DNA
1 | RLQQ | ≤ 0.2
2 | IYNG | ≤ 0.2
3 | RMLK | ≤ 0.2
4 | YVCR | ≤ 0.2
5 | TTMK | ≤ 0.2
6 | WLSG | ≤ 0.2
7 | KMEF | ≤ 0.2
8 | ANVC | ≤ 0.2
9 | IPGK | ≤ 0.2
10 | QAAL | ≤ 0.2
11 | HAQG | ≤ 0.2
12 | MNIL | ≤ 0.2
13 | PTKH | ≤ 0.2
14 | MFSG | ≤ 0.2
15 | LSAL | ≤ 0.2
16 | YCQN | ≤ 0.2
17 | IFME | ≤ 0.2
18 | RTRC | 0.351
19 | AAVR | ≤ 0.2
20 | MPIR | ≤ 0.2
21 | LAGI | ≤ 0.2
22 | IPNF | ≤ 0.2
23 | PDFC | ≤ 0.2
24 | LKLP | ≤ 0.2
25 | NIWR | ≤ 0.2

Row | Variant | one-hybrid fitness for binding NBS DNA
26 | SGAC | ≤ 0.2
27 | KVFY | ≤ 0.2
28 | LSYI | ≤ 0.2
29 | FKYG | ≤ 0.2
30 | IVHT | ≤ 0.2
31 | RQNA | 0.251
32 | VLKW | ≤ 0.2
33 | HSWG | ≤ 0.2
34 | VREV | ≤ 0.2
35 | SICC | ≤ 0.2
36 | MTFN | ≤ 0.2
37 | EQAI | ≤ 0.2
38 | DGFS | ≤ 0.2
39 | RGIW | ≤ 0.2
40 | CGTD | ≤ 0.2
41 | RATE | ≤ 0.2
42 | SVCT | ≤ 0.2
43 | YQAG | ≤ 0.2
44 | GTAM | ≤ 0.2
45 | PQIR | ≤ 0.2
46 | RYIF | ≤ 0.2
47 | PIWN | ≤ 0.2
48 | ADEG | ≤ 0.2
49 | RKPH | ≤ 0.2
50 | WPHR | ≤ 0.2

Row | Variant | one-hybrid fitness for binding NBS DNA
51 | WQQS | ≤ 0.2
52 | TMRC | ≤ 0.2
53 | YKQT | ≤ 0.2
54 | RFTR | 0.298
55 | GPTK | ≤ 0.2
56 | RPPN | ≤ 0.2
57 | EPHW | ≤ 0.2
58 | AADS | ≤ 0.2
59 | LFRP | ≤ 0.2
60 | RKPP | ≤ 0.2
61 | ACLM | ≤ 0.2
62 | MPGR | ≤ 0.2
63 | APFC | ≤ 0.2
64 | RGQP | ≤ 0.2
65 | DFSM | ≤ 0.2
66 | RMVY | ≤ 0.2
67 | RDGP | ≤ 0.2
68 | MYEK | ≤ 0.2
69 | YKLQ | ≤ 0.2
70 | HKVS | ≤ 0.2
71 | CGGS | ≤ 0.2
72 | FPTL | ≤ 0.2
73 | PLCR | ≤ 0.2
74 | DLYN | ≤ 0.2
75 | SWRM | ≤ 0.2

Row | Variant | one-hybrid fitness for binding NBS DNA
76 | AIDI | ≤ 0.2
77 | YSTC | ≤ 0.2
78 | PKNT | ≤ 0.2
79 | DPRH | ≤ 0.2
80 | SVPF | ≤ 0.2
81 | KSTR | ≤ 0.2
82 | GAYS | ≤ 0.2
83 | LIKG | ≤ 0.2
84 | TCKF | ≤ 0.2
85 | MASF | ≤ 0.2
86 | SAAN | ≤ 0.2
87 | MALS | ≤ 0.2
88 | CGDA | ≤ 0.2
89 | RRMA | 0.591
90 | PWLN | ≤ 0.2
91 | RQSG | ≤ 0.2
92 | LNPW | ≤ 0.2
93 | QGWT | ≤ 0.2
94 | PSGW | ≤ 0.2
95 | LRLI | ≤ 0.2
96 | HFSS | ≤ 0.2
97 | WPQG | ≤ 0.2
98 | QRWG | ≤ 0.2
